# The other results are listed elsewhere or left out.
# B1: PhoQ; a variant is named by its letters at X, in order, P23837 (parent)
# chain: MKKLLRLFFPLSLRVRFLLATAAVVLVLSLAYGMVALIGYSVSFDKTTFRLLRGESNLFYTLAKWENNKLHVELPENIDKQSPTMTLIYDENGQLLWAQRDVPWLMKMIQPDWLKSNGFHEIEADVNDTSLLLSGDHSIQQQLQEVREDDDDAEMTHSVAVNVYPATSRMPKLTIVVVDTIPVELKSSYMVWSWFIYVLSANLLLVIPLLWVAAWWSLRPIEALAKEVRELEEHNRELLNPATTRELTSLVRNLNRLLKSERERYDKYRTTLTDLTHSLKTPLXXLQXXLRSLRSEKMSVSDAEPVMLEQISRISQQIGYYLHRASMRGGTLLSRELHPVAPLLDNLTSALNKVYQRKGVNISLDISPEISFVGEQNDFVEVMGNVLDNACKYCLEFVEISARQTDEHLYIVVEDDGPGIPLSKREVIFDRGQRVDTLRPGQGVGLAVAREITEQYEGKIVAGESMLGGARMEVIFGRQHSAPKDE
# Variants of: B1
# Test: enrichment ratio after two sorts for PhoP signalling (ratio (wild type AVST 3.29)); higher = more functional
# Details: with PhoP (E. coli)
row,Variant,enrichment ratio
1,ARMA,≤ 0.25
2,ENGG,≤ 0.25
3,KWPR,≤ 0.25
4,QFTY,≤ 0.25
5,TNIM,≤ 0.25
6,QAKV,≤ 0.25
7,GHKC,≤ 0.25
8,IREN,≤ 0.25
9,MSSF,0.41
10,SFHI,≤ 0.25
11,YPDP,≤ 0.25
12,NSSI,≤ 0.25
13,INGR,≤ 0.25
14,SSYL,3.15
15,GPYW,≤ 0.25
16,RQCA,≤ 0.25
17,SHEM,≤ 0.25
18,MRQH,≤ 0.25
19,KKCA,≤ 0.25
20,KFAD,≤ 0.25
21,MMCT,≤ 0.25
22,RVLR,≤ 0.25
23,HQMY,≤ 0.25
24,SPDD,≤ 0.25

row,Variant,enrichment ratio
1,TCFN,≤ 0.25
2,LGPK,≤ 0.25
3,AYHG,≤ 0.25
4,QRIH,≤ 0.25
5,YITR,0.319
6,HGME,≤ 0.25
7,KKKS,≤ 0.25
8,NLTV,≤ 0.25
9,NDYM,≤ 0.25
10,VQRT,≤ 0.25
11,VPCS,≤ 0.25
12,MHWY,≤ 0.25
13,FKMD,≤ 0.25
14,MQSY,≤ 0.25
15,QFSD,≤ 0.25
16,MFQP,≤ 0.25
17,DHSQ,≤ 0.25
18,NEWA,≤ 0.25
19,IAHH,≤ 0.25
20,WLPV,≤ 0.25
21,VQLI,1.37
22,LTGN,≤ 0.25
23,NMCY,≤ 0.25
24,MYFR,≤ 0.25

row,Variant,enrichment ratio
1,SWWS,≤ 0.25
2,NLNL,≤ 0.25
3,RRTY,≤ 0.25
4,KHQL,≤ 0.25
5,WSRL,≤ 0.25
6,GPRR,≤ 0.25
7,VKWC,≤ 0.25
8,KGMD,≤ 0.25
9,HKNP,≤ 0.25
10,MNSW,≤ 0.25
11,QHCN,≤ 0.25
12,WIPK,≤ 0.25
13,YMYG,≤ 0.25
14,DMLK,≤ 0.25
15,VGYM,≤ 0.25
16,HSIC,≤ 0.25
17,KFNH,≤ 0.25
18,ECLL,0.596
19,DWRQ,≤ 0.25
20,TSWF,3.89
21,AGCA,15
22,KHYR,≤ 0.25
23,NYYL,≤ 0.25
24,HIKG,≤ 0.25

row,Variant,enrichment ratio
1,IKTE,≤ 0.25
2,YIGR,≤ 0.25
3,GWPW,≤ 0.25
4,PMTW,≤ 0.25
5,WFCC,≤ 0.25
6,PYQG,≤ 0.25
7,YWVP,≤ 0.25
8,VINK,≤ 0.25
9,FAWW,≤ 0.25
10,AVVE,≤ 0.25
11,GLWF,≤ 0.25
12,TTPW,≤ 0.25
13,PAWD,≤ 0.25
14,IRER,≤ 0.25
15,DWCF,≤ 0.25
16,RQRH,≤ 0.25
17,QYDL,≤ 0.25
18,DIMR,≤ 0.25
19,IWEY,≤ 0.25
20,VFLL,≤ 0.25
21,IIRA,≤ 0.25
22,LIRE,≤ 0.25
23,ASFS,≤ 0.25
24,WTII,≤ 0.25

row,Variant,enrichment ratio
1,QCRQ,≤ 0.25
2,DHMM,≤ 0.25
3,QFLR,≤ 0.25
4,VQKN,≤ 0.25
5,FGTD,≤ 0.25
6,MSYH,6.75
7,RQPS,≤ 0.25
8,QYYH,≤ 0.25
9,VGTS,0.315
10,GNDQ,≤ 0.25
11,EAHV,≤ 0.25
12,DCWK,≤ 0.25
13,GTVV,≤ 0.25
14,NAAH,≤ 0.25
15,GPMY,≤ 0.25
16,FTFL,≤ 0.25
17,NQGE,≤ 0.25
18,EKLF,≤ 0.25
19,SCNK,≤ 0.25
20,NMAD,≤ 0.25
21,TWMY,≤ 0.25
22,VRSH,≤ 0.25
23,NIDP,≤ 0.25
24,AIPC,1.63

row,Variant,enrichment ratio
1,WPVF,≤ 0.25
2,SDCV,2.1
3,MAHH,≤ 0.25
4,WAKN,≤ 0.25
5,PPYS,≤ 0.25
6,IIWN,≤ 0.25
7,NNHD,≤ 0.25
8,IYCH,≤ 0.25
9,HKHV,≤ 0.25
10,TFTI,10.2
11,PGHC,≤ 0.25
12,NRGR,≤ 0.25
13,DWCW,≤ 0.25
14,LPMH,≤ 0.25
15,QDIT,≤ 0.25
16,KMVA,≤ 0.25
17,FFNI,≤ 0.25
18,SCWE,≤ 0.25
19,NEPC,≤ 0.25
20,AFMY,≤ 0.25
21,WRNS,≤ 0.25
22,GRQM,≤ 0.25
23,FTHL,≤ 0.25
24,RFYK,≤ 0.25

row,Variant,enrichment ratio
1,DDCW,≤ 0.25
2,VRNM,≤ 0.25
3,NLEY,≤ 0.25
4,HKLL,1.86
5,IIHG,≤ 0.25
6,ARQL,≤ 0.25
7,IDGF,≤ 0.25
8,WWSH,≤ 0.25
9,IAHY,≤ 0.25
10,ECMK,≤ 0.25
11,QHKF,≤ 0.25
12,PYGA,≤ 0.25
13,ILQY,≤ 0.25
14,NQHF,≤ 0.25
15,MIAQ,14.7
16,MKPA,≤ 0.25
17,WAFK,≤ 0.25
18,FMRQ,≤ 0.25
19,WPCA,≤ 0.25
20,EPTD,≤ 0.25
21,QCAH,≤ 0.25
22,TDMA,5.86
23,QIAP,≤ 0.25
24,NWNQ,≤ 0.25

row,Variant,enrichment ratio
1,PPLM,≤ 0.25
2,YIKG,≤ 0.25
3,FSRY,≤ 0.25
4,VSIT,≤ 0.25
5,MKLC,≤ 0.25
6,ERGT,≤ 0.25
7,MYHI,≤ 0.25
8,TTYG,10.4
9,CFIL,≤ 0.25
10,YRTP,≤ 0.25
11,MAHK,≤ 0.25
12,PHYH,≤ 0.25
13,QLSW,≤ 0.25
14,SDGQ,≤ 0.25
15,LFCA,≤ 0.25
16,FRKV,≤ 0.25
17,KQAC,≤ 0.25
18,PVAQ,≤ 0.25
19,KGVK,≤ 0.25
20,YDDS,≤ 0.25
21,NDNS,≤ 0.25
22,PTWR,≤ 0.25
23,LKCC,≤ 0.25
24,TGVM,4.32

row,Variant,enrichment ratio
1,TFQF,≤ 0.25
2,TTFL,≤ 0.25
3,SKIA,≤ 0.25
4,IVKW,≤ 0.25
5,VPNG,≤ 0.25
6,PDPD,≤ 0.25
7,SLLN,5.28
8,VEAE,≤ 0.25
9,LRKD,≤ 0.25
10,ALIL,≤ 0.25
11,KYHF,≤ 0.25
12,HNDI,≤ 0.25
13,EHLA,≤ 0.25
14,IWCK,≤ 0.25
15,LNIP,≤ 0.25
16,QDRP,≤ 0.25
17,TMDG,≤ 0.25
18,NFFR,≤ 0.25
19,LPYT,≤ 0.25
20,HFKC,≤ 0.25
21,RSLF,≤ 0.25
22,MCYG,≤ 0.25
23,SCRF,≤ 0.25
24,DCGH,≤ 0.25

row,Variant,enrichment ratio
1,NNPT,≤ 0.25
2,SIMC,19.4
3,YTHG,≤ 0.25
4,GCAH,1.33
5,NPTW,≤ 0.25
6,ILSM,≤ 0.25
7,AFTW,≤ 0.25
8,PYTT,≤ 0.25
9,NQGS,≤ 0.25
10,LTEW,≤ 0.25
11,KQCG,≤ 0.25
12,IAHN,≤ 0.25
13,QVAM,≤ 0.25
14,KLTI,≤ 0.25
15,DTYP,≤ 0.25
16,RGPV,≤ 0.25
17,AQCY,0.265
18,HICL,1.46
19,LHMC,≤ 0.25
20,MFSH,≤ 0.25
21,FCHL,≤ 0.25
22,RANE,≤ 0.25
23,WYDF,≤ 0.25
24,VVAA,≤ 0.25

row,Variant,enrichment ratio
1,FRWM,≤ 0.25
2,VEKC,≤ 0.25
3,WQHN,≤ 0.25
4,VYPV,≤ 0.25
5,VQCW,≤ 0.25
6,FYIH,≤ 0.25
7,LASP,≤ 0.25
8,YWGE,≤ 0.25
9,PDGS,≤ 0.25
10,TRRT,≤ 0.25
11,LNMT,≤ 0.25
12,LAQT,≤ 0.25
13,EDKR,≤ 0.25
14,WKHN,≤ 0.25
15,QMWT,≤ 0.25
16,TTKY,≤ 0.25
17,MMKA,≤ 0.25
18,RHFW,≤ 0.25
19,GIYA,≤ 0.25
20,LAGA,≤ 0.25
21,MVSC,≤ 0.25
22,DKVR,≤ 0.25
23,MWLT,≤ 0.25
24,VCIL,≤ 0.25

row,Variant,enrichment ratio
1,INNY,≤ 0.25
2,SQKY,≤ 0.25
3,AIQE,≤ 0.25
4,GFVW,≤ 0.25
5,KLIG,≤ 0.25
6,VAMS,0.988
7,VTYM,≤ 0.25
8,SMFH,≤ 0.25
9,NTTT,≤ 0.25
10,IEWC,≤ 0.25
11,LKQL,≤ 0.25
12,MISR,≤ 0.25
13,YDPN,≤ 0.25
14,PHIR,≤ 0.25
15,GHCR,≤ 0.25
16,RSAR,≤ 0.25
17,MDHV,≤ 0.25
18,MIMG,≤ 0.25
19,KNKS,≤ 0.25
20,LHFS,≤ 0.25
21,SQNI,≤ 0.25
22,SGCI,10.3
23,YHKW,≤ 0.25
24,WGDI,≤ 0.25

row,Variant,enrichment ratio
1,KGIT,≤ 0.25
2,EVAY,≤ 0.25
3,ARRI,≤ 0.25
4,PHSG,≤ 0.25
5,AVLN,11.1
6,AWTY,≤ 0.25
7,YVNN,≤ 0.25
8,SPQG,≤ 0.25
9,LETI,≤ 0.25
10,QPIH,≤ 0.25
11,EFYY,≤ 0.25
12,PSTY,≤ 0.25
13,KFIW,≤ 0.25
14,LIYD,≤ 0.25
15,AHKI,≤ 0.25
16,NSLE,≤ 0.25
17,RIFM,≤ 0.25
18,KGLI,≤ 0.25

# Source: a collection of fitness landscapes (doi:10.1126/science.1257360)
